US5807827A, “Des-Tyr dynorphin analogues” (Des-Tyr Dynorphin Partnership, priority 1997, dated 1998)
Not every detail of the peptide structures is certain; ends, links or a residue may be inferred. Some ranges recur; such a range may be that of the whole group of compounds. Bridge positions count the residues as written; N and C are the ends. Ends that are not written are not given here. Peptide text beside a SMILES is read from it.

Assays:
[1] = tested on: morphine tolerant (addicted) animals; experiment: Naloxone-precipitated narcotic withdrawal (withdrawal jumping) in morphine pellet-implanted animals; type: in vivo, mice; details: for Potency Ratio: naloxone ED50 with peptide 5 μmol/kg i.v. versus control, 95% confidence limits in brackets; for Suppression of morphine withdrawal (naloxone-induced withdrawal jumping): Example 3, short fragments of dyn A
Method: (§1) Morphine tolerance was established by implanting morphine pellets, 75 mg base, subcutaneously by the method of Way et al., J. Pharmac. Exp. Ther., 167, pp. 1-8 (1969), incorporated herein by reference. The drug used was morphine sulfate (Mallinckrodt Chemical Works, St. Louis, Mo.). The ED50 values, their 95% confidence limits and significance of the potency ratio between two ED50. values were determined by the method of Litchfield and Wilcoxon, J. Pharmac. Exp. Ther., 96, 99-113 (1949), incorporated herein by reference.
The morphine tolerant (addicted) animals had pellets implanted for three days. The animals were then challenged with naloxone doses (while the morphine pellet remained in place). […] Table 1 summarizes the data for the control animals and for groups of animals treated with three different peptides. Each peptide was in a dose of 5 μmol/kg i.v. before administration of the naloxone.
However, when any of the three peptides shown in Table 1 was administered five minutes before administration of the naloxone, then much more naloxone was needed to precipitate the animal into a state of narcotic withdrawal. This means that each of the three peptides shown in Table 1 caused the addicted animal to be not as dependent on morphine as it would be without such pretreatment.
The animals and test procedures used were analogous to those described in Example 1. We studied various short fragments of dyn A to determine the minimal amino acid sequence that was necessary to retain the ability to suppress morphine withdrawal.

[2] = tested on: morphine tolerant (that is, addicted) mice; experiment: Tail-flick antinociceptive activity of morphine in morphine tolerant animals; type: in vivo; details: for Morphine ED50: addicted animals pretreated with peptide 2.5 μmol/kg i.v. 5 minutes before testing, tail flick
Method: Analgesia was measured by the tail-flick method of D'Amour and Smith, J. Pharmac. Exp. Ther. , 72, pp. 74-79 (1941), incorporated herein by reference, as modified by Tulunay and Takemori, J. Pharmac. Exp. Ther., 190, pp. 395-400 (1974), incorporated herein by reference. For ED50 (e.g., effective does for 50% of the test group) determinations, the animals' responses were made quantal by establishing an endpoint which represented a significant increase in reaction time. The endpoint was an increase in reaction time of an individual animal of greater than 3 SD (e.g., standard deviation) of the control mean reaction time for all animals used in the assay. The usual control mean reaction time was 3.1±0.05 sec. Nonresponding animals were removed from the heat stimulus when reaction time exceeded 10 sec. to avoid tail damage.
Drugs were injected 30 minutes prior to testing, unless otherwise indicated. Morphine was injected subcutaneously (s.c.) whereas the peptides were injected (i.v.) in […] saline.
as §1
The animals and test procedures used were analogous to those described in Example 1.
The antinociceptive activity ("pain killing") of morphine was tested in morphine tolerant (that is, addicted) mice, as well as in naive, unaddicted (that is, normal) animals. Two base lines were thus established for the two different control animals.
This means that when the naive animals were administered 6.5 μmol/kg s.c. morphine before the tail flick test, then half of those animals felt no pain. […]

| Compound | Potency Ratio [1] | Suppression of morphine withdrawal (naloxone-induced withdrawal jumping) [1] | also measured |
| --- | --- | --- | --- |
| CC[C@H](C)[C@H](NC(=O)[C@H](CCCNC(=N)N)NC(=O)[C@H](CCCNC(=N)N)NC(=O)[C@H](CC(C)C)NC(=O)[C@H](Cc1ccccc1)NC(=O)CNC(=O)CN)C(=O)N[C@@H](CCCNC(=N)N)C(=O)N1CCC[C@H]1C(=O)N[C@@H](CCCCN)C(=O)N[C@@H](CC(C)C)C(=O)N[C@@H](CCCCN)C(=O)N[C@@H](Cc1c[nH]c2ccccc12)C(=O)N[C@@H](CC(=O)O)C(=O)N[C@@H](CC(N)=O)C(=O)N[C@@H](CCC(N)=O)C(=O)O [Dyn (2-17)] | 3.7 (2.5-5.4) |  | Potency Ratio ([1]; listed as des-Tyr compound): 3.7; Morphine ED50 [2]: 32.2 (26.7-40.0) μmol/kg s.c.; Morphine ED50 ([2]; listed as des-Tyr compound): significantly decreased amount of morphine necessary for the pain relief; Tolerance Index ([2]; addicted animals pretreated with peptide 2.5 μmol/kg i.v., relative to naive control): 4.7 (3.5-6.2) |
| CC[C@H](C)[C@@H]1NC(=O)[C@H](CCCNC(=N)N)NC(=O)[C@H](CCCNC(=N)N)NC(=O)[C@@H](NC(=O)[C@H](Cc2ccccc2)NC(=O)CNC(=O)CNC(=O)[C@@H](N)Cc2ccc(O)cc2)CSSC[C@@H](C(N)=O)NC(=O)[C@@H]2CCCN2C(=O)[C@H](CCCNC(=N)N)NC1=O [[Cys^5 -Cys^11] Dyn (1-11) NH2, reference compound] (H-YGGFCRRIRPC-NH2; disulfide 5-11) | 2.6 (1.7-3.9) |  | Potency Ratio ([1]; listed as cyclic dynorphin amide compound): 2.6 |
| CC[C@H](C)[C@H](NC(=O)[C@H](CCCNC(=N)N)NC(=O)[C@H](CCCNC(=N)N)NC(=O)[C@H](CC(C)C)NC(=O)[C@H](Cc1ccccc1)NC(=O)CNC(=O)CN)C(=O)N[C@@H](CCCNC(=N)N)C(=O)N1CCC[C@H]1C(=O)N[C@@H](CCCCN)C(=O)O [dyn A-(2-11), Gly-Gly-Phe-Leu-Arg-Arg-Ile-Arg-Pro-Lys] |  | inhibited withdrawal jumping with potencies slightly less than that of dyn A-(2-17) |  |
| CC[C@H](C)[C@H](NC(=O)[C@H](CCCNC(=N)N)NC(=O)[C@H](CCCNC(=N)N)NC(=O)[C@H](CC(C)C)NC(=O)[C@H](Cc1ccccc1)NC(=O)CNC(=O)CN)C(=O)N[C@@H](CCCNC(=N)N)C(=O)N1CCC[C@H]1C(=O)N[C@@H](CCCCN)C(=O)N[C@@H](CC(C)C)C(=O)N[C@@H](CCCCN)C(=O)N[C@@H](Cc1c[nH]c2ccccc12)C(=O)O [dyn A-(2-14), Gly-Gly-Phe-Leu-Arg-Arg-Ile-Arg-Pro-Lys-Leu-Lys-Trp] |  | inhibited withdrawal jumping with potencies slightly less than that of dyn A-(2-17) |  |
| GFLRRI [dyn A-(3-8), Gly-Phe-Leu-Arg-Arg-Ile] |  | did not retain the anti-jumping property |  |
| GFLRRIRPKLK [Dyn (3-13), Gly-Phe-Leu-Arg-Arg-Ile-Arg-Pro-Lys-Leu-Lys] | 2.0 (1.2-3.6) |  | Potency Ratio ([1]; listed as dynorphin (3-13)): 2 |
| GGFLRRI [Dyn A-(2-8), Gly-Gly-Phe-Leu-Arg-Arg-Ile] |  | inhibited withdrawal jumping with potencies slightly less than that of dyn A-(2-17) |  |
